Whole data set: some 110,000 compounds, median “z-score” near -0.1, cut for the highest 2% near 2. The list shows a part of the results. Active and inactive are the calls of the source.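 Rule for the calls: active = z-score in the third read window above 3 or below -3; inactive = the rest.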
Each molecule was assayed against Metabotropic glutamate receptor 8 (Rattus norvegicus) (UniProt P70579) (assay: mGluR8 Gi/Go-coupled signaling modulation – cell-based, rat, thallium flux, HTS, primary screen (AID 488969)). Settings: HEK293 rat mGluR8, GIRK (G protein-gated inwardly rectifying potassium channel) thallium flux, FluoZin2; at 10 µM; stronger effect = higher value; submaximal glutamate (EC20) added with thallium.
Chain of UniProt P70579 (P70579 whole entry, looked up): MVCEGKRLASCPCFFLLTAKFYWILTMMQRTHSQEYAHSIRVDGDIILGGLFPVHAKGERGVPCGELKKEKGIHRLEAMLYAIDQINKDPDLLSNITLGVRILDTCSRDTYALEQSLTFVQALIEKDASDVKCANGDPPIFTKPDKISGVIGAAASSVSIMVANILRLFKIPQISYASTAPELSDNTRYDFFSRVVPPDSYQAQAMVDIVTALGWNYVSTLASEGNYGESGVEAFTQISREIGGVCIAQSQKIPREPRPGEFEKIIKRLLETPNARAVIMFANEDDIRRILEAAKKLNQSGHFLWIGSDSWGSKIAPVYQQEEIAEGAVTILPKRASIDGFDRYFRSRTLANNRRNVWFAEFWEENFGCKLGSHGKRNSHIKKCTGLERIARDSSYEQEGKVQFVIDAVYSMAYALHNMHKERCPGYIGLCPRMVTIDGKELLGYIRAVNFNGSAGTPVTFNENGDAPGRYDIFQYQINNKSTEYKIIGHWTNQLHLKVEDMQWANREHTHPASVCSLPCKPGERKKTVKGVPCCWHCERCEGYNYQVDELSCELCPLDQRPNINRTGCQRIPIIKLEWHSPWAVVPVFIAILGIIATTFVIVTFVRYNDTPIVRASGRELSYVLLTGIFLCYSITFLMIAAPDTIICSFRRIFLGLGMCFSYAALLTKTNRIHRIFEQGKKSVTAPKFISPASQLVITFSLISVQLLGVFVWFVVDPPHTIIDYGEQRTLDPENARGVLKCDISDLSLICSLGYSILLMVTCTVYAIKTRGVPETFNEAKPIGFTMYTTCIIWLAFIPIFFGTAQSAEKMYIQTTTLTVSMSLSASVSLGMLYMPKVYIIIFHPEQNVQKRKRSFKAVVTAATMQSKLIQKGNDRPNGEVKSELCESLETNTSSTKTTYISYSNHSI

Row | Structure (SMILES) | z-score
1 | O=c1c2ccccc2nc(N2CCN(c3ccccc3)CC2)n1Cc1ccccc1 | -0.556
2 | CCC(C)NC(=O)C1(C)CCC(=O)N1Cc1ccccc1OC (stereo not given) | -0.203
3 | Cc1nn(-c2ccccc2)c2nc(=O)n(-c3ccccc3)cc12 | 0.382
4 | COc1cc(SC)ccc1C(=O)Nc1ccc2c(c1)OCCO2 | -0.616
5 | CCN(CC)S(=O)(=O)c1ccc(NC2CCCc3ccccc32)nc1 (stereo not given) | -0.0653
6 | c1ccc(-n2ncc3c(NCc4ccccn4)ncnc32)cc1 | -0.201
7 | Cc1ccc2cc(CN(C(=O)c3ccco3)c3ccccc3)c(=O)[nH]c2c1 | -0.656
8 | COc1ccc(OC)c(NC(=O)Cn2c(-c3ccc(Cl)cc3)noc2=O)c1 | 0.687
9 | Cc1ccc(CNC(C)c2ccccc2)cc1 (stereo not given) | 0.00558
10 | COc1cccc2cc(C(C)=O)c(=O)oc12 | -0.157
11 | COC(=O)c1ccccc1N(C)C(=O)C12CCC(C)(C(=O)O1)C2(C)C (stereo not given) | -0.42
12 | CC(=O)NN1C(=O)/C(=C\c2ccccc2)SC1=S | -0.137
13 | Cc1ccc(-c2c(C#N)c(N)nc3c2CCCC3)s1 | -0.0781
14 | CCC(Sc1nncn1C)C(=O)Nc1nnc(-c2ccccc2Cl)s1 (stereo not given) | 0.118
15 | O=C(NCc1cccnc1)c1ccc(Cl)cc1[N+](=O)[O-] | -0.16
16 | Nn1c(SCC(=O)NC2CCCc3ccccc32)nnc1-c1ccc(Cl)cc1Cl (stereo not given) | -0.15
17 | CCn1c(SCC(=O)Nc2nc(C)cs2)nnc1C(NC(=O)c1ccccc1Cl)C(C)C (stereo not given) | 0.0315
18 | Cc1ccc(C(=O)Nc2ccccc2C(=O)N2CCCC2)cc1[N+](=O)[O-] | 0.0381
19 | COC(=O)Nc1ccc(S(=O)(=O)N2CCC(Cc3ccccc3)CC2)cc1 | -0.0675
20 | COc1ccc(Nc2nc(Nc3ccc(OC)cc3)nc(SC3=NCCS3)n2)cc1 | -1.2
21 | CCC1=NN(C(=O)Cc2ccc([N+](=O)[O-])cc2)C(O)(c2ccc(Br)cc2)C1 (stereo not given) | -0.206
22 | COc1cccc(C(=O)Nc2ncc3c(n2)CC(c2ccc(OC)cc2OC)CC3=O)c1 (stereo not given) | -1.19

Row | Structure (SMILES) | z-score
23 | O=C(N/N=C\c1ccc(-c2ccccc2[N+](=O)[O-])o1)C1COc2ccccc2O1 (stereo not given) | -0.225
24 | Cc1cc(C)nc(SCC(=O)OCC(=O)Nc2nc3ccccc3s2)n1 | -0.0902
25 | O=C(Nc1cccc2ccccc12)NC1CCCc2ccccc21 (stereo not given) | -0.225
26 | CC(=O)c1c(C)[nH]c(C(=O)COC(=O)c2cc(S(=O)(=O)N(C)c3ccccc3)ccc2Cl)c1C | -0.243
27 | CN(c1ccc(S(=O)(=O)N2CCOCC2)cn1)C1CCCCC1 | 0.185
28 | O=C(NC1CCCCC1)c1cc([N+](=O)[O-])[nH]n1 | 0.0144
29 | COc1ccc(-c2cc(C(=O)O)[nH]n2)cc1OC | 0.115
30 | COc1cc(NC(=O)C2CCCCC2)c(OC)cc1NC(=O)CCC(=O)NCc1ccco1 | -0.237
31 | CN(C)c1ccc(NC(=O)c2ccc(COc3cccc(Cl)c3)o2)cc1 | -0.611
32 | O=C(/C=C/c1cccc([N+](=O)[O-])c1)c1ccc2c(c1)OCCO2 | -0.246
33 | COC(=O)c1nc(NC(=O)C(C)(C)C)n[nH]1 | 0.11
34 | Cc1cccc(C(C)C)c1NC(=O)CN(C)Cc1cccc(F)c1 | -0.417
35 | COc1cc(C=O)ccc1OS(=O)(=O)c1ccc(NC(C)=O)cc1 | -0.4
36 | COc1ccc(Cl)c(Cn2c(NCCCO)nc3c2c(=O)n(C)c(=O)n3C)c1 | -0.642
37 | Cn1c(C(=O)N2CCN(c3nc4ccccc4s3)CC2)cc2sccc21 | -0.631
38 | CCOc1ccccc1NC(=O)c1ccccc1N(C)S(C)(=O)=O | -0.366
39 | O=C(Nc1cccnc1)C1OCCc2ccccc21 (stereo not given) | -0.355
40 | Cc1ccc(-c2cc(-c3nnc(SCC(=O)NC(C)C(C)C)n3N)c3ccccc3n2)cc1 (stereo not given) | -0.304
41 | O=C(c1ccc(Br)o1)N1CCN=C1SCc1cccnc1 | 0.392
42 | O=C(COc1ccc(S(=O)(=O)N2CCOCC2)cc1)Nc1ccc2c(c1)OCCO2 | -0.135
43 | CN1CCN(c2ccc([N+](=O)[O-])c(Sc3nc4ccccc4[nH]3)c2)CC1 | -0.352
44 | Cc1ccc(NC(=S)c2nc3ccccc3[nH]2)cc1 | -1.02

Row | Structure (SMILES) | z-score
45 | CCS(=O)(=O)c1ccc2c(c1)N(S(=O)(=O)c1ccccc1)CC(C(=O)O)O2 (stereo not given) | 0.0848
46 | O=C(Nc1ccccc1[N+](=O)[O-])c1cccnc1Cl | -0.142
47 | CC(C)(C)c1nnc2sc(SCC(=O)c3ccccc3)nn2c1=O | -0.682
48 | COC(=O)c1cc(OC)c(OC)cc1NC(=O)CCCCCN1C(=O)CCC1=O | -0.144
49 | C=C(C)Cc1c(C)c(C#N)c2nc3ccccc3n2c1N1CCCCC1 | -0.411
50 | CCC(C)NC(=O)C(=O)NCc1ccncc1 (stereo not given) | 0.186
51 | CC(=O)COc1ncn(-c2ccccc2)n1 | 0.552
52 | COc1ccc(C(=O)C(CO)Oc2ccccc2OC)cc1OC (stereo not given) | 0.324
53 | COc1ccc(/C=N/NC(=O)c2nonc2C)cc1 | 0.0688
54 | Cc1nc2cc(-n3ccc(=O)cc3)ccc2n1-c1ccccc1 | -0.177
55 | CC(C)(C)NS(=O)(=O)c1ccc(CCC(=O)N2CCCCC2)cc1 | -0.00207
56 | Cc1csc(NC(=O)c2nc3nc(C)cc(C)n3n2)n1 | -0.682
57 | Cc1ccc(NC(=O)CCn2nc(C)cc2C)cc1 | -0.0783
58 | COc1cccc(NC(=O)COc2nc3ccccc3nc2C)c1 | -0.172
59 | CCCCNS(=O)(=O)c1ccc2nc(SCC(=O)c3ccccc3OC)[nH]c2c1 | -0.325
60 | Cc1ccc(NC(=O)CN2CCN(CCN=CC3=C(O)CC(C)(C)CC3=O)CC2)cc1 | -0.885
61 | Clc1ccc(Cc2nn3c(-c4ccncc4)nnc3s2)cc1 | -0.204
62 | CCCCCCC(=O)Nc1nc(C)c(-c2csc(Nc3ccc(Cl)cc3)n2)s1 | -0.287
63 | Cc1cc(C)c(C)c(OCCCCn2cnc3ccccc3c2=O)c1 | -0.2
64 | O=C1CCc2cc(S(=O)(=O)N3CCN(c4cccc(Cl)c4)CC3)ccc2N1 | 0.66
65 | CC1Cc2ccccc2N1CC(=O)Nc1ccc2c(c1)OC(F)(F)O2 (stereo not given) | -0.294
66 | O=S(=O)(c1cccc(Cl)c1)N1CCCC1 | -0.173

Row | Structure (SMILES) | z-score
67 | O=C(CSCC(=O)NC1CCCC1)Nc1ccccc1 | -0.362
68 | COc1cccc(Cn2c(N)c(C#N)c3nc4ccccc4nc32)c1OC | 0.791
69 | CCCOc1ccccc1NC(=O)c1c(-c2ccccc2)noc1C | -0.547
70 | O=C(NCC1CCCO1)c1ccc2c(=O)n(CCc3ccccc3)c(=O)[nH]c2c1 (stereo not given) | 0.355
71 | CCCS(=O)(=O)Nc1c(C(=O)O)[nH]c2ccccc12 | -0.0853
72 | Cc1onc(-c2ccccc2)c1-c1n[nH]c(=S)n1-c1ccccc1 | -0.237
73 | COc1ccc(OC)c(C2C3=C(CCCC3=O)NC3=C2C(=O)CCC3)c1 | -0.586
74 | CCCCSc1nc(N)c(NC(=O)c2ccco2)c(=O)[nH]1 | active: 3.07
75 | Cc1ccnn1CCSCC(=O)O | 0.122
76 | O=C(NCCc1ccccc1)C1(c2ccccc2)CC1(Cl)Cl (stereo not given) | 0.132
77 | CCOC(=O)C1=C(O)/C(=C/c2cn(CC(=O)N3CCCC3)c3ccccc23)SC1=Nc1ccccc1 | -0.0166
78 | COc1ccc(-c2nnc(SCC(=O)Nc3cc(S(=O)(=O)N4CCCCC4)ccc3Cl)n2N)cc1 | -0.429
79 | O=S(=O)(c1ccc2nc(SCc3ccc(Cl)cc3)[nH]c2c1)N1CCOCC1 | -0.0233
80 | O=C(CCn1cnc2ccccc2c1=O)Nc1nc2c(s1)CCCC2 | -0.216
81 | Cc1cccc2sc(NC(=O)CN(C)S(=O)(=O)c3cccs3)nc12 | 1.93
82 | COc1ccc(OC)c(C(c2nnnn2C2CCCC2)N2CCc3ccccc3C2)c1 (stereo not given) | -0.479
83 | CC(C)COc1ccc(C(=O)Nc2scc(-c3ccc(Cl)cc3Cl)c2C(N)=O)cc1 | -0.183
84 | COc1ccc(S(=O)(=O)N2CCCCC2)cc1Br | 0.173
85 | Cc1nn2c(N3CCN(C4CCCC4)CC3)cc(C(C)(C)C)nc2c1-c1ccccc1 | 0.26
86 | CC(=O)Nc1cc2c(cc1NC(=O)Cn1nc(-c3ccc4c(c3)OCCO4)ccc1=O)OCCO2 | -0.275
87 | CC(=O)c1cccc(NC(=O)C(OC(=O)c2cccs2)c2ccccc2)c1 (stereo not given) | -0.333
88 | CC(C)(C)NC(=O)NC(=O)COC(=O)Cc1coc2ccc3ccccc3c12 | 0.0031

Row | Structure (SMILES) | z-score
89 | CC(=O)c1c(N2CCN(Cc3ccccc3)CC2)nc(=S)n(Cc2ccccc2)c1C | -0.0789
90 | COc1cc(C(=O)OC(C)CN2CCOCC2)cc(OC)c1OC (stereo not given) | -0.172
91 | CC(=O)Nc1cc(Cl)ccc1OS(=O)(=O)c1ccc(C)cc1 | -0.12
92 | O=C(CSCc1ccc(Cl)cc1)N/N=C/c1ccccc1 | -0.128
93 | CCOc1ccc(C(F)(F)F)cc1NC(=O)COc1ccc(C(F)(F)F)cc1[N+](=O)[O-] | -0.107
94 | Cc1ccccc1N1CCN(Cc2cccc(C(=O)O)c2)CC1 | 0.536
95 | O=C(CC(c1ccccc1)c1ccccc1)NCc1cccnc1 | 0.00676
96 | CC(C)Oc1ccccc1C1CC(=O)Nc2c1c(=O)n(C)c(=O)n2C (stereo not given) | 0.036
97 | Cc1cc(C)n2c(SCC(=O)NCc3ccco3)nnc2n1 | -0.0687
98 | CC(=O)c1ccc(NC(=O)Cn2nc(C)cc2C)cc1 | 0.0345
99 | O=C(NC1CCCCC1)c1ccc(S(=O)(=O)N2CCOCC2)cc1 | 0.588
100 | O=S(=O)(NCc1ccccc1)c1ccc(S(=O)(=O)N(Cc2ccccn2)C2CCCC2)cc1 | 0.0498
101 | CC(C)CC(=O)Nc1cccc(-c2csc(-c3ccccc3)n2)c1 | 0.159
102 | CC(C)CCNC(=O)NC(=O)COC(=O)C1=COCCO1 | -0.0887
103 | CCOCCCNCc1ccc(Cl)cc1 | -0.338
104 | COc1ccc2[nH]c(O)c(NC(C)=O)c2c1 | 0.0483
105 | Cc1c(NC(=O)CSc2nncc3ccccc23)c(=O)n(-c2ccccc2)n1C | -0.206
106 | CC(C)Cn1c(SCC(=O)N2CCc3ccccc3C2)nc2cc(Cl)ccc2c1=O | 0.543
107 | O=[N+]([O-])c1ccc(CSc2nnc(-c3cnccn3)o2)cc1 | -0.0463
108 | Cc1cc(N2C(=O)C(=O)/C(=C(/O)c3ccc(F)cc3)C2c2ccc(Cl)cc2)no1 (stereo not given) | -2.22
109 | Cc1cccc(N2CCN(C(=O)C3CCN(S(=O)(=O)c4cccc5cccnc45)CC3)CC2C)c1 (stereo not given) | -0.277
110 | COc1ccc(C2C(C#N)=C(C)NC3=C2S(=O)(=O)c2ccccc23)cc1 (stereo not given) | -0.505

Source: PubChem BioAssay AID488969 (Vanderbilt High Throughput Screening Facility, 2010)
